Assay results from paper PMC7070046, “Sjögren syndrome/scleroderma autoantigen 1 is a direct Tankyrase binding partner in cancer cells” (Communications Biology, 2020).
No constants are given. Whether binding was seen depends on the method and setting. In cells and extracts the contact can be indirect. Some entries that bind do so weakly or less than the wild type. For part of these data: Where a sequence is shown, tags or fusion partners need not be part of it.

Chains of the proteins cited; added tags and fusions are not shown. Lines headed by an entry give the natural chain unless they say otherwise; changes in a name come on top. Residues count along the entry.
UniProt O95271: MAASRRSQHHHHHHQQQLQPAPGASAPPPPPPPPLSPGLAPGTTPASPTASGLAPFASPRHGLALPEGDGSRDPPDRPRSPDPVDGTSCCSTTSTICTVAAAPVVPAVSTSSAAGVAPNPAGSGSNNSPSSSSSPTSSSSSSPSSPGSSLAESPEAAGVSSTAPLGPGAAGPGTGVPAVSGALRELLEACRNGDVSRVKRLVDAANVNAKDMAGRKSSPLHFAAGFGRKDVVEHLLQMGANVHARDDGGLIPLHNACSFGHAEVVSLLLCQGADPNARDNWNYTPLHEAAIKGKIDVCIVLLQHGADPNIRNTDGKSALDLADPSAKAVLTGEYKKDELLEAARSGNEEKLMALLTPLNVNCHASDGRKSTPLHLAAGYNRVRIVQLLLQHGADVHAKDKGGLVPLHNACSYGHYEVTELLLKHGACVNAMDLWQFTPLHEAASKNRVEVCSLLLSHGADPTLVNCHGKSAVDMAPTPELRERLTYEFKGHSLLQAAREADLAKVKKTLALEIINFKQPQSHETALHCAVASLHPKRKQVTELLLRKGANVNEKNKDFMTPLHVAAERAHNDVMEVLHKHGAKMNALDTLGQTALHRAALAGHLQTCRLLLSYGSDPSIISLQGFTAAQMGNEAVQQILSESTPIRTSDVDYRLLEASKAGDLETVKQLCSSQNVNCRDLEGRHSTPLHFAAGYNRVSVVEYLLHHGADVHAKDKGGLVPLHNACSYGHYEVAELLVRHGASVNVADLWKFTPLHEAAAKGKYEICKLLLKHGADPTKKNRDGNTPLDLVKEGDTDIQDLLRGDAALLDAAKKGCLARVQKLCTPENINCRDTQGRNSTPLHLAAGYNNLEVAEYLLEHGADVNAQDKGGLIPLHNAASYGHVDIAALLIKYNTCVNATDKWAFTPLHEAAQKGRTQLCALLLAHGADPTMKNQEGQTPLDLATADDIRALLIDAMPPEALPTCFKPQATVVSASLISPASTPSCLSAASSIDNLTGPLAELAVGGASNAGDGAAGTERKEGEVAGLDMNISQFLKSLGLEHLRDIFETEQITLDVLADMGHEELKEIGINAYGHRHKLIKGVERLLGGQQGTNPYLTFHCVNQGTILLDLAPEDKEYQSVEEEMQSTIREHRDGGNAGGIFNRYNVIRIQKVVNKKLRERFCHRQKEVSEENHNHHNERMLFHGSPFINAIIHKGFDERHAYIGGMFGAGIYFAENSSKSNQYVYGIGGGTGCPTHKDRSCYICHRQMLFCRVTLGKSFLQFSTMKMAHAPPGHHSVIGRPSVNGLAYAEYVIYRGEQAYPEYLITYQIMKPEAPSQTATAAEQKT
TNKS1-Δ(SAM-PARP) (residues 1–975): residues 1-975 of O95271
TNKS1-Δ(ARC4-PARP) (residues 1–634): residues 1-634 of O95271
TNKS1-Δ(ARC3-PARP) (residues 1–502): residues 1-502 of O95271
TNKS1-Δ(ARC2-PARP) (residues 1–331): residues 1-331 of O95271
TNKS1-Δ(ARC1-ARC4) (residues 835–1327): residues 835-1327 of O95271
TNKS1-Δ(ARC1-ARC5) (residues 1014–1327): residues 1014-1327 of O95271

T1: SSSCA1-Δ(Zn-Pro) (residues 149–199) (human) (UniProt O60232)
T1 sequence: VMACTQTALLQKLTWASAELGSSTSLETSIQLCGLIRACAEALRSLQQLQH

T2: SSSCA1-Δ(H1–H2) (residues 2–147) (human) (UniProt O60232)
T2 sequence: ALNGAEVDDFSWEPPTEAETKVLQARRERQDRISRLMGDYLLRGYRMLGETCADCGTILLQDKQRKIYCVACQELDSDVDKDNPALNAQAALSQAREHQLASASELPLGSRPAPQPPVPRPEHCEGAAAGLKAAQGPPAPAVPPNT

T3: SSSCA1-H2_(Leu/Ala) (L180A, L183A, I184A, L191A, L194A, L197A) (human) (UniProt O60232)
T3 sequence: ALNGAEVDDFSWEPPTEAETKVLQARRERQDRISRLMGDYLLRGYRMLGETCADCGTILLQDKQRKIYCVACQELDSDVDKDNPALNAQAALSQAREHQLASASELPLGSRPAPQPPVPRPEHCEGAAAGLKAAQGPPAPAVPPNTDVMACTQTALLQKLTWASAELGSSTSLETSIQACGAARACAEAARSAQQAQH

T4: His-GFP-SSSCA1 (SSSCA1 FL, residues A2-H199) (human) (UniProt O60232)
T4 sequence: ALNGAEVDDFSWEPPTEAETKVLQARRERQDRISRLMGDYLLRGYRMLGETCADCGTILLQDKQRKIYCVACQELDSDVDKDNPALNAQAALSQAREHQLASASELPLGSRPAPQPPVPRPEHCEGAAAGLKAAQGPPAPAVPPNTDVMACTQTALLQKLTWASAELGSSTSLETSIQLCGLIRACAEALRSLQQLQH

T5: SSSCA1-ΔH2 (residues 2–172) (human) (UniProt O60232)
T5 sequence: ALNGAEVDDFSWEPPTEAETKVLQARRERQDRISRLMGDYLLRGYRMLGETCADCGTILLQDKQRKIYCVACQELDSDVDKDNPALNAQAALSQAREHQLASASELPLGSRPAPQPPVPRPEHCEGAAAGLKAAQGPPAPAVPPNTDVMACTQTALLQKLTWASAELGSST

T6: SSSCA1-Δ(Pro-H2) (residues 2–84) (human) (UniProt O60232)
T6 sequence: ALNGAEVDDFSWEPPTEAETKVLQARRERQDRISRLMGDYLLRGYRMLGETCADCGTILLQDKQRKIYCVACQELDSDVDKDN

T7: SSSCA1-ΔZn (residues 85–199) (human) (UniProt O60232)
T7 sequence: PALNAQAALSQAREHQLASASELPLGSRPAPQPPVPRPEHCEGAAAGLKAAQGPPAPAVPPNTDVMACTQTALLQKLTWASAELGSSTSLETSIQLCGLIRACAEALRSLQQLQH

T8: SSSCA1-Δ(midPro-H2) (residues 2–111) (human) (UniProt O60232)
T8 sequence: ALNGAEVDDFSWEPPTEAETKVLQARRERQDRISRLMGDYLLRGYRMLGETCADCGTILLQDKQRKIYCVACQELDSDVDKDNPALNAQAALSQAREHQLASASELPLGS


Legend:
[1] = biological target: T1, SSSCA1-Δ(Zn-Pro) (residues 149–199) (human); experiment: co-IP; tandem-affinity purification (His SpinTrap, then GFP-Trap A beads) of His-GFP-tagged SSSCA1 constructs from transfected cells (HeLa; full length also SW480 and LNCaP), endogenous partner detected by western blotting
[2] = biological target: T2, SSSCA1-Δ(H1–H2) (residues 2–147) (human); experiment: as above
[3] = biological target: T3, SSSCA1-H2_(Leu/Ala) (L180A, L183A, I184A, L191A, L194A, L197A) (human); experiment: as above
[4] = biological target: T4, His-GFP-SSSCA1 (SSSCA1 FL, residues A2-H199) (human); experiment: as above
[5] = biological target: T5, SSSCA1-ΔH2 (residues 2–172) (human); experiment: as above
[6] = biological target: T6, SSSCA1-Δ(Pro-H2) (residues 2–84) (human); experiment: as above
[7] = biological target: T7, SSSCA1-ΔZn (residues 85–199) (human); experiment: as above
[8] = biological target: T8, SSSCA1-Δ(midPro-H2) (residues 2–111) (human); experiment: as above
[9] = biological target: TNKS1-Δ(ARC2-PARP) (residues 1–331) (human) (UniProt O95271); experiment: co-IP; tandem-affinity purification (His SpinTrap, then GFP-Trap A beads) of His-GFP-tagged TNKS1 constructs from transfected HeLa cells, endogenous SSSCA1 detected by western blotting
[10] = biological target: TNKS1-Δ(ARC1-ARC5) (residues 1014–1327) (human) (UniProt O95271); experiment: as above
[11] = biological target: TNKS1-Δ(ARC1-ARC4) (residues 835–1327) (human) (UniProt O95271); experiment: as above
[12] = biological target: TNKS1-Δ(SAM-PARP) (residues 1–975) (human) (UniProt O95271); experiment: as above
[13] = biological target: TNKS1-Δ(ARC3-PARP) (residues 1–502) (human) (UniProt O95271); experiment: as above
[14] = biological target: His-GFP-TNKS1 FL (residues 1–1327) (human) (UniProt O95271); experiment: as above
[15] = biological target: TNKS1-Δ(ARC4-PARP) (residues 1–634) (human) (UniProt O95271); experiment: as above

binding [1]	binding [2]	binding [3]	binding [4]	binding [5]	binding [6]	binding [7]	binding [8]	binding [9]	binding [10]	binding [11]	binding [12]	binding [13]	binding [14]	binding [15]	Molecule
binds	no binding	no binding	binds	no binding	no binding	binds	no binding								Tankyrase 1 (TNKS1), endogenous (from UniProt O95271 1-1327) (enzyme)
								no binding	no binding	no binding	binds	binds	binds	binds	SSSCA1, endogenous (protein, UniProt O60232 1-199) MALNGAEVDDFSWEPPTEAETKVLQARRERQDRISRLMGDYLLRGYRMLGETCADCGTILLQDKQRKIYCVACQELDSDVDKDNPALNAQAALSQAREHQLASASELPLGSRPAPQPPVPRPEHCEGAAAGLKAAQGPPAPAVPPNTDVMACTQTALLQKLTWASAELGSSTSLETSIQLCGLIRACAEALRSLQQLQH
